Test results published in the supplement of paper PMC10338343.
± gives the standard deviation. Only a part is listed here, and it is no random draw.

Tested on: MIWI (PIWIL1) piRISC loaded with L1MC piRNA (30 nt)
Assay: pre-steady-state target cleavage rate (min^-1); MIWI and MILI are mouse PIWI proteins and EfPiwi is from a freshwater sponge; tags in brackets are library labels; higher = faster piRNA-guided slicing of the target
Settings: guide: L1MC piRNA 5'p-UAACUAAAUACUAUGCAAGCUGUAGGUCCU
Procedure, shortened: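 Cleave-'n-Seq measured uncleaved targets by sequencing after a transcribed, DNA-blocked target RNA library […] was mixed with 1 nM active affinity-purified piRISC holding one synthetic guide, with or without 500 nM GTSF1 partner protein, at 33 °C in HEPES–potassium acetate buffer for 0–8 or 0–960 min. Counts were normalised to depth and to weakly complementary targets, three trials were pooled, and k3 was capped at 0.0001 min^-1. A burst-and-steady-state fit gave the pre-steady-state cleavage rate.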

[1] = auxiliary factor: 500 nM mouse GTSF1
[2] = auxiliary factor: none (no GTSF1)
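Note: 1 nM active piRISC with 0.1 nM target library at 33 °C single turnover.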

Sequence	pre-steady-state target cleavage rate [1]	pre-steady-state target cleavage rate [2]
UCCACCUUCAGCUUGCAUAGUAUUUAGAAA	0.301 ± 0.048	0.00449 ± 0.0024
UCGACCUAGAGCUUGCAUACUAUUUAGUUA	0.273 ± 0.02	0.0232 ± 0.0049
UCCUGGUACAGCAUGCAUAGUAUUUACUUA	0.166 ± 0.038	0.019 ± 0.0049
UCCUCCUACAGCUUGCAUAGUAUAUACUUA	0.183 ± 0.032	0.00579 ± 0.0024
UGGACCUACAGCUUGCAUAGUUUUUUGUUA	0.242 ± 0.017	0.031 ± 0.0082
UCCUCCUUCAGCUUGCAUAGUUUUUAGUUA	0.377 ± 0.021	0.0263 ± 0.006
UCCUGGAACAGCUUGCAUAGUAUUUUGUAA	0.151 ± 0.03	0.0187 ± 0.0045
UCCACCUACAGCUUGCAUACUAUUUAGAUA	0.101 ± 0.023	0.00785 ± 0.0021
UGGACCUACAGCUUGUAUAGUAUUUAGUUA	1.77 ± 0.11	0.0563 ± 0.012
UCCUCCUACAGCCUUGCAUAGUAUUUAGUUA	1.06 ± 0.042	0.0471 ± 0.0083
UCCUGGAUGAGCUUGCAUAGUAUUUACAAA	0.199 ± 0.034	0.00422 ± 0.0029
UGGAGCUACAGCUAGCAUAGUAUUUAGUUA	1.19 ± 0.05	0.0354 ± 0.0066
UCGACCUACUCGUUGCAUAGUAUUUAGUAA	0.522 ± 0.032	0.00974 ± 0.0021
UCCUGGAACAGCUAGCAUAGUAUUUACUUA	0.217 ± 0.027	0.0126 ± 0.0027
UCCACCUACAGCUUGCAUGUAUUUAGUUA	0.298 ± 0.025	0.00292 ± 0.0021
UCCUGGUACAGCAUGCAUAGUAUAUAGUUA	0.559 ± 0.07	0.0113 ± 0.003
UCCUGGUACAGCUUGGAUAGUAUUUAGAUA	0.165 ± 0.04	0.00847 ± 0.0027
UCCUCCUACAGCUUGCAUAGUAAAUAGUUA	0.54 ± 0.037	0.00555 ± 0.0024
UCGACGAUCAGCUUGCAUAGUAUUUAGUAA	1.05 ± 0.063	0.048 ± 0.011
UCCUGGUACAGCUUGCAUAGUAUGUAGUUA	0.135 ± 0.028	0.00992 ± 0.0027

Sequence	pre-steady-state target cleavage rate [1]	pre-steady-state target cleavage rate [2]
UCCUGGAACAGCUUGCAAUAGUAUUUAGUUA	0.0544 ± 0.011	0.0038 ± 0.0026
UCCUGGUACAGCUAGCAUAGUAUUUUGUUA	0.32 ± 0.048	0.0119 ± 0.0031
UCGACCUACAGGUUGCAUUGUAUUUAGUUA	0.922 ± 0.044	0.0147 ± 0.003
UCCUGGAUCAGCUUGCAUAGGAUUUAGUUA	0.0196 ± 0.0032	0.00856 ± 0.0035
UCCUGGAUGAGCUUGCAUAGUAUUUAAUUA	0.139 ± 0.027	0.015 ± 0.0037
UCCUGCUACUGCUUGCAAAGUAUUUAGUUA	0.371 ± 0.042	0.0277 ± 0.0043
UCCUGGAUGAGCUUGCAAACUAUUUAGUUA	0.0326 ± 0.0046	0.00628 ± 0.0028
AGGACGUACAGCUUGCAUAGUAUUUAGUAA	0.964 ± 0.11	0.0646 ± 0.014
UCCUGCUACAGCUUGCAUAGUAGUUAGUUA	0.235 ± 0.029	0.0119 ± 0.0026
UCGACGUACUGCUUGCAUAGUAUUUAGUUA	1.13 ± 0.049	0.0599 ± 0.0094
UCCUCCUACGCUUGCAUAGUAUUUAGUUA	1.24 ± 0.045	0.0478 ± 0.0094
UCCUGGAUGAGCUUGCAUACUAUUUAGUUA	0.219 ± 0.022	0.0242 ± 0.0057
UCCUGGAUGUGCUUGCAUAGUAUUUAGUUG [g2:g20:cont:t1G]	0.366 ± 0.031	0.0463 ± 0.012
UGGACCUACAGCUUGCAUACUAUUUAGUUA	0.363 ± 0.024	0.0343 ± 0.008
UCGACCUACAGCUUGGUUAGUAUUUAGUAA	0.72 ± 0.061	0.00525 ± 0.002
AGGACCUACAGCUUGCAUAGUAUUAGUUA	0.385 ± 0.053	0.00372 ± 0.003
UGGACCUACACCUUGCAUAGUAUUUUGUUA	0.557 ± 0.068	0.0292 ± 0.0053
UCCUGGUAGAGCUAGCAUAGUAUUUAGUUA	0.569 ± 0.034	0.0102 ± 0.0035
UCCUGGAUGUGCUUGCAUAGUAUGUUAGUUA	0.0837 ± 0.011	0.0113 ± 0.0038
UCCUGCUUCAGCUUGCAUAGUAUUUAGUAA	0.537 ± 0.036	0.0275 ± 0.0068

Sequence	pre-steady-state target cleavage rate [1]	pre-steady-state target cleavage rate [2]
UCCACCUACAGCUUGCAUAGAAUUUAGUUA	0.469 ± 0.049	0.0176 ± 0.0053
UCCUCCUACAGCUAGCAUACUAUUUAGUUA	0.32 ± 0.024	0.0106 ± 0.0024
UCCUCCUAGAGCUUGCAUAGUUUUUAGUUA	0.301 ± 0.028	0.0163 ± 0.0035
UCCUGCUACAGCUUGGAUAGUAAUUAGUUA	0.605 ± 0.058	0.0139 ± 0.0035
UCCUGGUAGAGCAUGCAUAGUAUUUAGUUA	0.415 ± 0.032	0.00711 ± 0.0026
UCCUGGAAGAGCUUGCAUAGUAUUAAGUUA	0.423 ± 0.038	0.0173 ± 0.0046
UCGACGUAGAGCUUGCAUAGUAUUUAGUUA	1.11 ± 0.046	0.0423 ± 0.0084
UCCUGCUUCAGCUUGCAUUGUAUUUAGUUA	0.991 ± 0.043	0.0287 ± 0.0069
UGGACCUACAGCUUGCAUAGUAUCUUAGUUA	1.14 ± 0.081	0.0298 ± 0.0075
UCGUCCUACAGCUUGCUUAGUAUUUAGUUA	1.43 ± 0.047	0.0358 ± 0.0073
UGGACCUACAGGUUGCAUAGUAUUUAGAAA	0.357 ± 0.039	0.00592 ± 0.0019
UGGACCUACAGCUUGCAUAGUAUUCUAGUUA	0.571 ± 0.069	0.0433 ± 0.011
UCGACCUACAGCUGUGCAUAGUAUUUAGUUA	1.42 ± 0.073	0.0386 ± 0.0081
AGGACCUACAGCUUGCAUAGUAUUUAUUUA	0.432 ± 0.033	0.0905 ± 0.019
UCCUGGAACAGCUUGCAUAGUAUUUAGUGUA	0.503 ± 0.037	0.0275 ± 0.005
UCCUGGAACACGUUGCAUAGUAUUUAGUUA	0.359 ± 0.034	0.00608 ± 0.002
UCCUCCUACAGCUUGCAAAGUAAUUAGUUA	0.645 ± 0.031	0.00886 ± 0.0023
UCCUGGAUGUGCUUGCAUAGUAUUAAGUAA	0.0337 ± 0.01	0.0066 ± 0.0024
UCCUCCUACAGCUAGCAUAGUUUUUAGUUA	0.315 ± 0.023	0.0114 ± 0.0022
UCCACCUACACCUUGCAUAGAAUUUAGUUA	0.337 ± 0.066	0.0107 ± 0.003
